First the molecules themselves.
B1: Caulobacter ParB omega fusion; a variant is named by its letters at X, in order, B8GW30 (parent)
chain: MESVVVGEPGMSEGRRGLGRGLSALLGEVDAAPAQAPGEQLGGSREAPIEILQRNPDQPRRTFREEDLEDLSNSIREKGVLQPILVRPSPDTAGEYQIVAGERAWRAAQRAGLKTVPIMVRELDDLAVLEIGIIENVQRADLNVLEEALSYKVLMEKFERTQENIAQTIGKSXSHVANXMRLLXLPDEVQSYLVSGELTAXHARAIAAAADPVALAKQIIEGGLSVRETEALARKAPNLSAGKSKGGRPPRVKDTDTQALESDLSSVLGLDVSIDHRGSTGTLTITYATLEQLDDLCNRLTRGI

The full ranking holds about 81,000 sequences; the median of “one-hybrid fitness for binding NBS DNA” is about -0.1, and the highest 2% start at about 0.36. The list shows a part of the results. Bounds are passed on as bounds.

The variants in this test derive from B1. The test is described as follows: one-hybrid fitness for binding NBS DNA (the Noc-binding site; scaled: cognate 1, non-cognate 0); higher = stronger binding. As to conditions: with NBS DNA site. The gist of the method: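 Pre- and post-selection plasmids were Illumina-sequenced, three replicate libraries were pooled, and any variant with under 10 reads was removed. The libraries were Caulobacter ParB with four specificity codons randomised, selected in E. coli USO through a HIS3 reporter whose site is 19 bp from the promoter. Cells grew 48 hours at 37°C on M9 without histidine, with 0.1 mM IPTG and 5 mM 3-AT. Fitness is the log change in variant-to-wild-type read ratio, rescaled against cognate and non-cognate.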
Consider QSIN, for which the “one-hybrid fitness for binding NBS DNA” value is at most 0.2.

For LNFC, the “one-hybrid fitness for binding NBS DNA” value was at most 0.2.

Turning to MLFR, the “one-hybrid fitness for binding NBS DNA” value was at most 0.2. For GVYG, the “one-hybrid fitness for binding NBS DNA” value was at most 0.2. As for FHMG, the figure is at most 0.2. Next, HQMP: at most 0.2.

Consider MLHG, for which the “one-hybrid fitness for binding NBS DNA” value is at most 0.2. As for HMIV, the figure is at most 0.2. As for IRIT, the figure is at most 0.2; as for FVIE, at most 0.2; as for HHLT, at most 0.2. As for TGCT, the figure is at most 0.2; as for QWGA, at most 0.2; as for YTPS, at most 0.2. In the case of QPNR, the “one-hybrid fitness for binding NBS DNA” value is 0.236. Consider WRSI, for which the “one-hybrid fitness for binding NBS DNA” value was at most 0.2.

With KFPI, the “one-hybrid fitness for binding NBS DNA” value was at most 0.2. As for IISE, the figure is at most 0.2; as for YRLV, at most 0.2; as for MQTK, at most 0.2. Turning to ESRR, the “one-hybrid fitness for binding NBS DNA” value is at most 0.2. As for WITF, the figure is at most 0.2; as for YDLE, at most 0.2. In the case of SPIY, the “one-hybrid fitness for binding NBS DNA” value is at most 0.2.

On to QWTN, for which the “one-hybrid fitness for binding NBS DNA” value is at most 0.2. Next, AQNL: at most 0.2; VNTQ: at most 0.2; ATYK: at most 0.2. In the case of PEAP, the “one-hybrid fitness for binding NBS DNA” value was at most 0.2. As for KRDG, the figure is at most 0.2; as for TRTP, at most 0.2; as for VLPF, at most 0.2. In the case of CCKS, the “one-hybrid fitness for binding NBS DNA” value was at most 0.2. As for QGVH, the figure is at most 0.2; as for YLPV, at most 0.2; as for VALE, at most 0.2. As for ETIH, the “one-hybrid fitness for binding NBS DNA” value was at most 0.2. Next, HNVS: at most 0.2. Next, NIDH: at most 0.2. Next, AHWC: at most 0.2; GIDF: at most 0.2. VLFL: the “one-hybrid fitness for binding NBS DNA” value was at most 0.2. On to SVEI, for which the “one-hybrid fitness for binding NBS DNA” value is at most 0.2. For the variant RLQG, the “one-hybrid fitness for binding NBS DNA” value is at most 0.2. Next, PYNA: at most 0.2. For the variant MKCF, the “one-hybrid fitness for binding NBS DNA” value was at most 0.2. Regarding WGQC, the “one-hybrid fitness for binding NBS DNA” value was at most 0.2. Next, PNCG: at most 0.2. Next, QPFR: at most 0.2. Next, KELR: at most 0.2; YVAM: at most 0.2; SPQV: at most 0.2. As for KSVG, the “one-hybrid fitness for binding NBS DNA” value was at most 0.2.

Regarding VKLW, the “one-hybrid fitness for binding NBS DNA” value is at most 0.2.

As for GSIL, the “one-hybrid fitness for binding NBS DNA” value is at most 0.2. Next, LEAV: at most 0.2. For the variant PSFW, the “one-hybrid fitness for binding NBS DNA” value was at most 0.2. As for TTYI, the figure is at most 0.2; as for NALW, at most 0.2; as for THGR, at most 0.2.

With VSGF, the “one-hybrid fitness for binding NBS DNA” value was at most 0.2. As for TKWY, the figure is at most 0.2. Turning to PRHF, the “one-hybrid fitness for binding NBS DNA” value was at most 0.2. With LMMA, the “one-hybrid fitness for binding NBS DNA” value is at most 0.2. Take SDKS: the “one-hybrid fitness for binding NBS DNA” value is at most 0.2. Next, RLGS: 0.419; TAMT: at most 0.2. Next, GLKL: at most 0.2; LTHR: at most 0.2; RIRQ: at most 0.2. On to TLME, for which the “one-hybrid fitness for binding NBS DNA” value was at most 0.2. Next, PYRR: at most 0.2.

Turning to KYQA, the “one-hybrid fitness for binding NBS DNA” value is at most 0.2.

As for HEVS, the “one-hybrid fitness for binding NBS DNA” value was at most 0.2. In the case of EYLY, the “one-hybrid fitness for binding NBS DNA” value is at most 0.2.

As to QFDR, the “one-hybrid fitness for binding NBS DNA” value is at most 0.2.

As for LIRC, the “one-hybrid fitness for binding NBS DNA” value is at most 0.2.

(Values after a collection of fitness landscapes (doi:10.1016/j.celrep.2020.107928).)
